Measurements reported in ChEMBL document CHEMBL4888484, “Replenishing the malaria drug discovery pipeline: Screening and hit evaluation of the MMV Hit Generation Library 1 (HGL1) against asexual blood stage Plasmodium falciparum ,using a nano luciferase reporter read-out” (2022).
Screen size: about 150,000 compounds; about 540 (0.36%) showed an effect of 50% or more. The list shows a part of the results.

What follows are compounds tested on Plasmodium falciparum (assay: Primary screen in NF54 nanoGlo assay, in single point, at 2uM, 72h; a lower Z score goes with more inhibition). Details: timepoint 72 hour.
Type: functional, Erythrocyte
For `COc1ccccc1/C=C/CN1CCC2(CC1)[C@H](O)C[C@@H]2O`, the “% Inhibition” value was -8% and the Z score was 1.4. In the case of `Cc1ccc(C)c(C(=O)Cn2nc3ccc(-c4ccc(Cl)cc4)nn3c2=O)c1`, the “% Inhibition” value was 33% and the Z score was -0.57. For `CC(C)c1cc(C(=O)N2CCCC(C)(C)[C@H]2C#N)on1`, the “% Inhibition” value was -14% and the Z score was 1.28. With `CCNC(=O)NC(=O)[C@H](C)N(C)Cc1ccoc1C` the “% Inhibition” value was -13% and the Z score was 1.28. In the case of `COCc1cccc(C(=O)N2CCC[C@H](c3nccs3)C2)c1`, the “% Inhibition” value was 1% and the Z score was -0.15. `C#CCN1Cc2cc(OC)c(OC)cc2C2(CCCC2)C1` was tested, and the “% Inhibition” value was -12% and the Z score was 2.27. `O=C(c1coc(Br)c1)N1CCC[C@H]1c1ncc[nH]1` was tested, and the “% Inhibition” value was 2% and the Z score was -0.38. `Cc1ccc(C(=O)Nc2ccc(C)c(N3C(=O)CNC3=O)c2)cn1` was tested, and the “% Inhibition” value was -6% and the Z score was 1.11. In the case of `Cc1c(C(=O)N(C)C[C@H]2CCCN(C)C2)cnn1-c1nccc(-c2cccs2)n1`, the “% Inhibition” value was -4% and the Z score was 0.83. For `O=C(Nc1cccc2ccccc12)N1CCCN(C(=O)C(F)(F)F)CC1`, the “% Inhibition” value was -6% and the Z score was 0.86. For `CCOC(=O)N1CCC(Nc2nc(-c3cccnc3)nc3c2CCNC3)CC1`, the “% Inhibition” value was -5% and the Z score was 0.8. In the case of `O=C(N[C@@H]1C[C@H]2OCC[C@@H]12)c1c[nH]nc1-c1ccccc1`, the “% Inhibition” value was -7% and the Z score was 0.87. `COc1ccccc1CNC(=O)C[C@@H]1[C@H](O)CCC2[C@](C)(CO)[C@H](OC(=O)NC3CCCCC3)CC[C@]21C` (stereo partly drawn) was tested, and the “% Inhibition” value was 29% and the Z score was -3.27. In the case of `CCc1nc(N)nc(N2CCN(Cc3ccncc3)CC2)c1C`, the “% Inhibition” value was -20% and the Z score was 2.27. `Cn1cccc1C(=O)N1CCN(Cc2cccnc2)[C@@H]2CS(=O)(=O)C[C@@H]21` was tested, and the “% Inhibition” value was -12% and the Z score was 1.49. `Cc1nc(C)c(C(=O)N[C@H]2CC=CC[C@@H]2C(N)=O)s1` was tested, and the “% Inhibition” value was -10% and the Z score was 1.76. In the case of `COc1cccc(-c2ncc(CNC(=O)[C@@H]3NCCc4[nH]cnc43)s2)c1`, the “% Inhibition” value was -9% and the Z score was 0.79. For `CCCc1nnc(C(=O)Nc2ccc(C(=O)NCCN3CCN(C)CC3)cc2)s1`, the “% Inhibition” value was -14% and the Z score was 1.66. `COCCn1cc2c(n1)[C@@H](NC(=O)CNC(=O)c1ccccc1OC)CCC2` was tested, and the “% Inhibition” value was 1% and the Z score was -0.07. `CCC(=O)N(Cc1csc(COc2ccc(C)c(C)c2)n1)C1CC1` was tested, and the “% Inhibition” value was -11% and the Z score was 1.04. For `CCN(Cc1ccccc1Cl)C[C@H]1CCCN1`, the “% Inhibition” value was 4% and the Z score was -0.63. For `Cc1cc(C)nc(NC[C@H](C)c2nc(C)cs2)n1`, the “% Inhibition” value was -5% and the Z score was 0.64. With `Cc1cc(F)ccc1S(=O)(=O)N1CCC[C@H]1c1nccn1C` the “% Inhibition” value was -7% and the Z score was 0.84. In the case of `CN(CCN1CCCCC1=O)Cc1nccs1`, the “% Inhibition” value was -4% and the Z score was 0.72. `O=C(O)[C@H]1CCCN1Cc1ccc(OCc2ccc(F)cc2)cc1` was tested, and the “% Inhibition” value was -17% and the Z score was 2.32. For `N#Cc1ccc(C(=O)Nc2c(F)cccc2NC2CC2)nc1`, the “% Inhibition” value was -16% and the Z score was 2.96. `COc1cccc(CNC(=O)CCC(=O)N2Cc3cccn3-c3ccccc32)c1OC` was tested, and the “% Inhibition” value was -6% and the Z score was 0.64. `CCC[C@@H](CNc1nc(C)nc(C)c1C)N(C)C` was tested, and the “% Inhibition” value was -7% and the Z score was 1.26. `CN(C1CCCCC1)S(=O)(=O)c1cccc2c1OCCO2` was tested, and the “% Inhibition” value was -8% and the Z score was 0.84. For `Cc1cc(C(=O)NCCc2nc3c(C)cccc3o2)on1`, the “% Inhibition” value was -9% and the Z score was 1.77. `CCN1CCN(C(=O)CC2CC3CCC2C3)CC1` (stereo not drawn) was tested, and the “% Inhibition” value was -1% and the Z score was 0.18. `Cc1ccccc1Cn1nc2c(S(=O)(=O)N3CCc4ccccc4C3)cccn2c1=O` was tested, and the “% Inhibition” value was 5% and the Z score was -0.75. For `CCn1cc(CN2CCN(c3nccn(C)c3=O)CC2)c(C)n1`, the “% Inhibition” value was -10% and the Z score was 1.08. In the case of `COC(=O)Cn1c(=O)n(Cc2nc(-c3ccccc3)no2)c(=O)c2ccccc21`, the “% Inhibition” value was 2% and the Z score was -0.42. `Cc1ccc(S(=O)(=O)C2CCCCC2NC[C@@H](C)O)cc1` (stereo partly drawn) was tested, and the “% Inhibition” value was -4% and the Z score was 0.57. `C[C@@H](C(=O)Nc1c(F)cccc1F)N1CCC(NS(=O)(=O)c2cccs2)CC1` was tested, and the “% Inhibition” value was -7% and the Z score was 0.81. With `Cc1nc[nH]c1CN1C[C@H]2CC[C@@H](C1)N(Cc1ccc(-n3ccnc3)cc1)C2` the “% Inhibition” value was 10% and the Z score was -0.98. In the case of `CN(Cc1ccccc1)CN1C(=O)C2(OCC(C)(c3ccccc3)CO2)c2ccccc21` (stereo not drawn), the “% Inhibition” value was -10% and the Z score was 1.27. With `O=C(NC1Cc2ccccc2C1)c1cccc(S(=O)(=O)N[C@H]2CCOC2)c1` the “% Inhibition” value was -12% and the Z score was 1.66. For `COc1ccc(NC(C)=O)cc1NC(=O)N1CC[C@H](Oc2cccc(Cl)c2)C1`, the “% Inhibition” value was 31% and the Z score was -3.48. With `O=C(NCC1CCc2ccccc2CC1)N[C@H]1C[C@H]1C(F)F` the “% Inhibition” value was -10% and the Z score was 1.64. For `O=C(c1ccc(Br)o1)N1CC[C@H](OCc2cccnc2)C1`, the “% Inhibition” value was -2% and the Z score was 0.21. With `CC(=Cc1cccc(C=C(C)c2cnccn2)c1)c1cnccn1` the “% Inhibition” value was 2% and the Z score was -0.42. In the case of `Cc1ccc2oc(-c3noc(-c4ccccc4)n3)c(C)c2c1`, the “% Inhibition” value was -7% and the Z score was 0.85. For `Cc1csc(CNC(=O)c2coc(COc3cccc(C(F)(F)F)c3)n2)n1`, the “% Inhibition” value was 1% and the Z score was -0.07. `CCCn1cc(S(=O)(=O)N[C@@H](CC)Cn2ccnc2)cn1` was tested, and the “% Inhibition” value was -3% and the Z score was 0.6. For `COCCn1c(=O)n([C@H]2CCCN(C(=O)CCc3ccc(OC)cc3)C2)c2ncccc21`, the “% Inhibition” value was -14% and the Z score was 1.9. In the case of `Cc1cn2nc(NC3CCCC3)sc2n1`, the “% Inhibition” value was 4% and the Z score was -0.71. For `CCOC1CC(CO)(NCc2nn(C)cc2C)C1(C)C` (stereo not drawn), the “% Inhibition” value was 31% and the Z score was -3.91. In the case of `CN(Cc1ncc(Br)cn1)c1cc(C2CC2)ncn1`, the “% Inhibition” value was 2% and the Z score was -0.39. In the case of `CN(C(=O)CCc1nnc(C2CCCC2)o1)c1ccn(C)n1`, the “% Inhibition” value was 9% and the Z score was -1.34. For `Cc1oc(-c2cnn(C)c2)nc1C(=O)N(CC(F)F)c1ccc(F)cc1`, the “% Inhibition” value was 0% and the Z score was -0.04. With `O=C(CN1CCCCC1C1CCCCC1O)NC(=O)NC1CCCCC1` (stereo not drawn) the “% Inhibition” value was 5% and the Z score was -0.8. `O=C(N[C@H]1CCN(Cc2ccccn2)C[C@@H]1O)C1CCOCC1` was tested, and the “% Inhibition” value was 2% and the Z score was -0.31.
